Here are results for 172 sequences from publication PMC6212790.

The other results are listed elsewhere or left out. At the low end of the ranking, values are background and their order means little.

In this assay the target is T1, GST-Rok-C97-191 (UniProt O34857).
T1 sequence: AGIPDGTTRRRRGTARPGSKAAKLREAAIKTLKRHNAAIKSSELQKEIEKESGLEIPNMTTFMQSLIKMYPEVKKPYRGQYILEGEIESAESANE
As to the kind of experiment: protein binding microarray.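 Also: rank score from −0.5 (least bound) to 0.5 (best bound).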 To be noted: Rok is a gene silencer of Bacillus subtilis; high values mean tight binding; most listed sequences are background and not binding sites; double strand, one strand shown.
With CACAATGG, the binding signal was -0.137 E-score. Under AATGGGCC stands -0.26 E-score; under GATGAATA, 0.11 E-score.

In turn, CCGTCCGA displayed a binding signal of -0.193 E-score. Next, ATCATCTG: 0.141 E-score.

ATATGCTA yielded a binding signal of 0.241 E-score. The sequence CGCTAGCG showed a binding signal of 0.113 E-score. Next, GAATGCCA: 0.0134 E-score; GTGCAGAA: -0.108 E-score; ATACTGAA: 0.0579 E-score.

Sequence GTACGTAC yielded a binding signal of 0.245 E-score.

TGACTGAA yielded a binding signal of -0.00419 E-score. In turn, GGCCCGAA displayed a binding signal of 0.0312 E-score. Under CAAACCTA stands 0.109 E-score; under CCCACGGA, -0.256 E-score; under GAACCAGA, -0.123 E-score. Under AAGTAAGG stands 0.0741 E-score; under ATATCTCA, 0.23 E-score. Under GGTTACTA stands 0.121 E-score; under CCTATAAG, 0.0895 E-score; under GGACGCTA, -0.0578 E-score. On to GGTTACCA, for which the binding signal is -0.245 E-score. Under ATATGACA stands -0.00716 E-score; under AAGGCGTA, -0.0982 E-score. With ATCGGGTC, the binding signal is -0.251 E-score.

The sequence CCTTGGGA displayed a binding signal of -0.216 E-score. Next, AGGAGATG: -0.179 E-score; ACTTCATC: -0.0418 E-score. Next, GACCTCCA: -0.271 E-score. Next, GATATATC: 0.403 E-score; GTTTGTAA: 0.102 E-score.

Regarding ACGAGGTA, the binding signal is -0.223 E-score. Under AACCGCCT stands -0.194 E-score; under CAGTCGAA, -0.198 E-score; under CCTTTTTC, -0.173 E-score. Next, TCCACCCA: -0.113 E-score; CTGACAGC: -0.172 E-score. ACCAATGA returned a binding signal of -0.027 E-score. Next, CTCACTGC: -0.0656 E-score; CATGTAGC: 0.304 E-score.

CTCGAGGC yielded a binding signal of -0.181 E-score. In turn, CGGCCCAG displayed a binding signal of -0.203 E-score. Under AATCACGC stands 0.0805 E-score; under AAGGTAGG, -0.00436 E-score; under AAATGCTC, -0.016 E-score. Under AGCGGACC stands -0.212 E-score; under AGGGTACC, -0.245 E-score; under CGGGTTGC, -0.436 E-score. Next, GATAATCC: 0.137 E-score. CCCGTTCA registered a binding signal of -0.0135 E-score. For GCCTAAAC, the binding signal was -0.107 E-score. Turning to GGCCATCA, the binding signal was -0.077 E-score.

In turn, ATCCGTGA showed a binding signal of -0.00698 E-score.

Take CGGGAAAG: the binding signal is -0.0932 E-score. AGTGCGGA returned a binding signal of 0.0282 E-score.

In turn, ACTGTTGC returned a binding signal of 0.119 E-score. As to AGAAGTGA, the binding signal is 0.101 E-score. Under CGCTACCG stands -0.00601 E-score; under AGAGGGAT, -0.0368 E-score; under AAGAGCCT, -0.267 E-score. Take AATTTGGT: the binding signal was determined as 0.212 E-score. For TATTGAAA, the binding signal was -0.0926 E-score.

The sequence CGATATTC yielded a binding signal of 0.167 E-score. As to ACAATTAC, the binding signal amounted to 0.255 E-score. On to ATCTAGAA, for which the binding signal turned out to be 0.241 E-score. Under CGATTCGA stands -0.0532 E-score; under CCAGGCCC, -0.389 E-score; under AGAACTGC, -0.0523 E-score. As for GATAGACC, the binding signal stood at 0.022 E-score. With CCAACATC, the binding signal is -0.0228 E-score. ACAAGGCC returned a binding signal of -0.226 E-score. Regarding ATCGCAAG, the binding signal is 0.12 E-score. TATGGGAA yielded a binding signal of -0.066 E-score. Under CAGGGGTC stands -0.331 E-score. ACCACATA came in with a binding signal of 0.146 E-score. Consider GGTTTACA, for which the binding signal was 0.122 E-score. In turn, CTAATATC displayed a binding signal of 0.141 E-score. Next, CGCACCTC: -0.255 E-score; CGGCCTCC: -0.345 E-score; CTGTCAAC: -0.0452 E-score. On to AAGGGATT, for which the binding signal was -0.164 E-score.

The sequence ATTTCCCC returned a binding signal of -0.0821 E-score. Next, ATGAAATC: 0.0367 E-score; AGTGATGA: 0.024 E-score; ATCTCAAT: 0.0629 E-score. CCTACCCG gave a binding signal of -0.0318 E-score. Sequence CCCGTGGC yielded a binding signal of -0.223 E-score. Consider TACCCTCA, for which the binding signal was -0.129 E-score. In turn, CTGACCGA displayed a binding signal of -0.113 E-score. Consider ATTCGCTC, for which the binding signal was -0.063 E-score. Take CTCACATA: the binding signal turned out to be 0.0489 E-score.

Consider TATAGCCA, for which the binding signal amounted to 0.0445 E-score. In turn, CTGGACAC returned a binding signal of -0.149 E-score. Under CCCCTTAA stands -0.166 E-score; under ATGAATCG, -0.0285 E-score; under GAATATCC, 0.0862 E-score. Under CTCCCGCC stands -0.285 E-score; under AAGTCATT, -0.0191 E-score; under GAAGCTAC, 0.309 E-score. Next, TGTCAACA: -0.107 E-score; GTTGCCCA: -0.233 E-score. For the sequence ACGGTCGG, the binding signal is -0.302 E-score. Regarding GCTGTACA, the binding signal was -0.0308 E-score. Next, AGGGACGG: -0.263 E-score; CGAAGGGC: -0.3 E-score; AGAGCTCA: -0.095 E-score. Under CGACTACG stands -0.0719 E-score; under CCTGGATC, -0.148 E-score; under CCGTTTCG, -0.0271 E-score. Under CTTCAGTA stands 0.123 E-score. On to CCGATCAC, for which the binding signal was -0.173 E-score. Next, GGGTTAGA: -0.176 E-score; CCAAGCCG: -0.103 E-score. In the case of GGCGCCTA, the binding signal was -0.153 E-score. Next, ATACGCTC: -0.188 E-score; AGGCGTAG: -0.0211 E-score; GCCCGGGA: -0.113 E-score.

The sequence CTCAGAAA yielded a binding signal of -0.114 E-score. Under GACAAAAC stands -0.106 E-score; under AGTTAAAC, 0.0755 E-score; under CACGCCTA, -0.037 E-score.

ACGTGCCC registered a binding signal of -0.364 E-score. Sequence CACTTAGG registered a binding signal of 0.00488 E-score.

With AGACGGGC, the binding signal was -0.151 E-score. Under AGCGCAGC stands -0.249 E-score. Consider AGAATAGC, for which the binding signal was 0.0274 E-score. Under GAAGACCC stands -0.249 E-score; under AGCACTAA, -0.0507 E-score; under CCGTGTTC, -0.0105 E-score. Under AGCGTCTA stands 0.0643 E-score; under CCCTAGGG, -0.231 E-score.

As to ACGTACCC, the binding signal was -0.107 E-score. Next, CAACTGAC: -0.115 E-score; GCCCCAGA: -0.161 E-score. In the case of CTCCTGCC, the binding signal was -0.211 E-score. Next, AAAATGGA: -0.09 E-score; ACGCGCAC: -0.146 E-score; CCGAGAAC: -0.0632 E-score. Next, AGATACCA: 0.0917 E-score. As for ATTATAAC, the binding signal was 0.174 E-score. Under GAAGGCGA stands -0.237 E-score; under CAACTTAC, 0.202 E-score; under AGTCTTTA, -0.0749 E-score. In the case of TCCACGCA, the binding signal was -0.0634 E-score. Under AAACTATC stands 0.36 E-score; under GTGAAATA, 0.156 E-score; under GAATATGC, 0.007 E-score. Under CCCAGTCC stands -0.24 E-score; under ATCAAGCC, -0.14 E-score; under CTTGTTAA, 0.127 E-score. Under GTGCAATA stands -0.0946 E-score; under ACGGATTG, -0.036 E-score. Consider CCCTGATA, for which the binding signal worked out at 0.0527 E-score. ATAAAGTA registered a binding signal of 0.29 E-score.

CGCCGCCG yielded a binding signal of -0.221 E-score. Consider CCGCTCCA, for which the binding signal is -0.0974 E-score. Under AGTCCCCA stands -0.122 E-score. Under AGGGAAAG stands -0.172 E-score; under CTTGATAA, 0.158 E-score; under CCAACAAG, -0.0674 E-score. Next, GTGAGCTA: 0.0327 E-score; GCCACGGA: -0.258 E-score. For AAGCGGAT, the binding signal came to 0.0367 E-score.

Regarding CAAGTGAA, the binding signal was -0.0164 E-score.

AGGGCTAA yielded a binding signal of -0.0356 E-score. Next, AACGCATC: -0.185 E-score; TATTCGAA: 0.194 E-score. Take AACAATAA: the binding signal worked out at 0.194 E-score.

CGGTTATA gave a binding signal of 0.128 E-score.

In turn, AGCGGTGA registered a binding signal of 0.0385 E-score. Next, GGCGGGAC: -0.265 E-score; ACCGAAAT: 0.208 E-score.
